At least one compound was matched to its structure with a doubt left. *1 amine or outer side, *2 acyl side, *3 side chain or, on linkers, in order; H or OH if unused. Where a SMILES comes first, the peptide text is derived from it. Bridges are numbered along the chain shown (N, C = ends). Roman numbers before positions name the chains, in order. Side-chain parts run from the residue outwards. [ ]: non-standard residue; d: D form. The star is where a group is joined. C20 diacid = O=C(O)CCCCCCCCCCCCCCCCCCC(=O)*; C18 diacid = O=C(O)CCCCCCCCCCCCCCCCC(=O)*; γGlu = O=C(O)[C@H](CCC(=O)[*:2])N[*:1]; Desaminohistidyl = O=C(CCc1c[nH]cn1)*; Ac4c = NC1(C(=O)O)CCC1; AEEA = NCCOCCOCC(=O)O; Aib = CC(C)(N)C(=O)O
Assay: Assay (III): ThT fibrillation assay for physical stability
Assay type: physicochemical
Settings: pH 7.5, 10 mM HEPES buffer, 37° C., shaking 960 rpm
Excerpt: Assay (III): ThT Fibrillation Assay for the Assessment of Physical Stability of Peptide Compositions
The purpose of this assay is to assess the physical stability of the GLP-1 derivatives of the invention in aqueous solutions.
Low physical stability of a peptide may lead to amyloid fibril formation, which is observed as well-ordered, thread-like macromolecular structures in the sample, which eventually may lead to gel formation. This has traditionally been measured by visual inspection of the sample. However, that kind of measurement is very subjective and depending on the observer. Therefore, the application of a small molecule indicator probe is much more advantageous. Thioflavin T (ThT) is such a probe and has a distinct fluorescence signature when binding to fibrils [Naiki et al. (1989) Anal. Biochem. 177, 244-249; LeVine (1999) Methods. Enzymol. 309, 274-284].
The time course for fibril formation can be described by a sigmoidal curve with the following expression [Nielsen et al. (2001) Biochemistry 40, 6036-6046]:
Here, as depicted in FIG. 1, F is the ThT fluorescence at the time t. The constant t0 is the time needed to reach 50% of maximum fluorescence. The two important parameters describing fibril formation are the lag-time calculated by t0−2τ and the apparent rate constant kapp 1/τ.
Samples were prepared freshly before each assay. Each sample composition is described in the legends. The pH of the sample was adjusted to the desired value using appropriate amounts of concentrated NaOH and HCl. Thioflavin T was added to the samples from a stock solution in H2O to a final concentration of 1 μM.
Sample aliquots of 200 μl (250 pM of the GLP-1 derivative in 10 mM HEPES buffer, pH 7.5) were placed in a 96 well microtiter plate (Packard OptiPlate™-96, white polystyrene). Usually, four or eight replica of each sample (corresponding to one test condition) were placed in one column of wells. The plate was sealed with Scotch Pad (Qiagen).
Incubation at given temperature, shaking and measurement of the ThT fluorescence emission were done in a Fluoroskan Ascent FL fluorescence platereader (Thermo Labsystems). The temperature was adjusted to 37° C. The plate was incubated with orbital shaking adjusted to 960 rpm with an amplitude of 1 mm. Fluorescence measurement was done using excitation through a 444 nm filter and measurement of emission through a 485 nm filter.
Each run was initiated by incubating the plate at the assay temperature for 10 min. The plate was measured every 20 minutes for a desired period of time. Between each measurement, the plate was shaken and heated as described.
After completion of the ThT assay the four or eight replica of each sample was pooled and centrifuged at 20000 rpm for 30 minutes at 18° C. The supernatant was filtered through a 0.22 μm filter and an aliquot was transferred to a HPLC vial.
The concentration of peptide in the initial sample and in the filtered supernatant was determined by reverse phase HPLC using an appropriate standard as reference. The percentage fraction the concentration of the filtered sample constituted of the initial sample concentration was reported as the recovery.
The measurement points were saved in Microsoft Excel format for further processing and curve drawing and fitting was performed using GraphPad Prism. The background emission from ThT in the absence of fibrils was negligible. The data points are typically a mean of four or eight samples and shown with standard deviation error bars. Only data obtained in the same experiment (i.e. samples on the same plate) are presented in the same graph ensuring a relative measure of fibrillation between experiments.
The data set may be fitted to Eq. (1).

Compared with CC[C@H](C)[C@H](NC(=O)[C@H](Cc1ccccc1)NC(=O)[C@H](CCC(=O)O)NC(=O)[C@H](CCCNC(=N)N)NC(=O)[C@H](C)NC(=O)[C@H](C)NC(=O)[C@H](CCC(N)=O)NC(=O)[C@H](CCCNC(=N)N)NC(=O)[C@H](CCC(=O)O)NC(=O)[C@H](CC(C)C)NC(=O)[C@H](Cc1ccc(O)cc1)NC(=O)[C@H](CCCCN)NC(=O)[C@H](CO)NC(=O)[C@H](Cc1ccc(O)cc1)NC(=O)[C@H](CC(=O)O)NC(=O)[C@H](CO)NC(=O)[C@@H](NC(=O)[C@H](Cc1ccccc1)NC(=O)[C@@H](NC(=O)CNC(=O)[C@H](Cc1c[nH]cn1)NC(=O)C1(NC(=O)CCc2c[nH]cn2)CCC1)[C@@H](C)O)[C@@H](C)O)C(=O)N[C@@H](C)C(=O)N[C@@H](Cc1c[nH]c2ccccc12)C(=O)N[C@@H](CC(C)C)C(=O)N[C@@H](CC(C)C)C(=O)N[C@@H](CCCCN)C(=O)N[C@@H](CCCCNC(=O)CC[C@H](NC(=O)COCCOCCNC(=O)CC[C@H](NC(=O)COCCOCCNC(=O)CC[C@H](NC(=O)COCCOCCNC(=O)CC[C@H](NC(=O)CC[C@H](NC(=O)CCCCCCCCCCCCCCCCC(=O)O)C(=O)O)C(=O)O)C(=O)O)C(=O)O)C(=O)O)C(N)=O [Example 23, N^ε35-[(4S)-4-carboxy-4-[[2-[2-[2-[[(4S)-4-carboxy-4-[[2-[2-[2-[[(4S)-4-carboxy-4-[[2-[2-[2-[[(4S)-4-carboxy-4-[[(4S)-4-carboxy-4-(17-carboxyheptadecanoylamino)butanoyl]amino]butanoyl]amino]ethoxy]ethoxy]acetyl]amino]butanoyl]amino]ethoxy]ethoxy]acetyl]amino]butanoyl]amino]ethoxy]ethoxy]acetyl]amino]butanoyl]-[Imp7,Acb8,His9,Tyr16,Lys18,Arg22,Arg26,Leu33,Lys35]-GLP-1-(7-35)-peptide amide] (Desaminohistidyl-[Ac4c]HGTFTSDYSKYLERQAAREFIAWLLKK([γGlu-AEEA-γGlu-AEEA-γGlu-AEEA-γGlu-γGlu-C18 diacid])-NH2), CC[C@H](C)[C@H](NC(=O)[C@H](Cc1ccccc1)NC(=O)[C@H](CCC(=O)O)NC(=O)[C@H](CCCNC(=N)N)NC(=O)[C@H](C)NC(=O)[C@H](C)NC(=O)[C@H](CCC(N)=O)NC(=O)[C@H](CCC(=O)O)NC(=O)[C@H](CCC(=O)O)NC(=O)[C@H](CC(C)C)NC(=O)[C@H](Cc1ccc(O)cc1)NC(=O)[C@H](CCCCN)NC(=O)[C@H](CO)NC(=O)[C@@H](NC(=O)[C@H](CC(=O)O)NC(=O)[C@H](CO)NC(=O)[C@@H](NC(=O)[C@H](Cc1ccccc1)NC(=O)[C@@H](NC(=O)CNC(=O)[C@H](Cc1c[nH]cn1)NC(=O)C1(NC(=O)CCc2c[nH]cn2)CCC1)[C@@H](C)O)[C@@H](C)O)C(C)C)C(=O)N[C@@H](C)C(=O)N[C@@H](Cc1c[nH]c2ccccc12)C(=O)N[C@@H](CC(C)C)C(=O)N[C@@H](CC(C)C)C(=O)N[C@@H](CCCCNC(=O)CNC(=O)[C@H](CO)NC(=O)[C@H](CCC(=O)O)NC(=O)CNC(=O)[C@H](CO)NC(=O)CC[C@H](NC(=O)CC[C@H](NC(=O)CCCCCCCCCCCCCCCCC(=O)O)C(=O)O)C(=O)O)C(=O)N[C@H](C(N)=O)[C@@H](C)O [Example 9, N^ε34-[2-[[(2S)-2-[[(2S)-4-carboxy-2-[[2-[[(2S)-2-[[(4S)-4-carboxy-4-[[(4S)-4-carboxy-4-(17-carboxyheptadecanoylamino)butanoyl]amino]butanoyl]amino]-3-hydroxypropanoyl]amino]acetyl]amino]butanoyl]amino]-3-hydroxypropanoyl]amino]acetyl]-[Imp7,Acb8,His9,Lys18,Glu22,Arg26,Leu33,Thr35]-GLP-1-(7-35)-peptide amide] (I: Desaminohistidyl-[Ac4c]HGTFTSDVSKYLEEQAAREFIAWLLKT-NH2 / II: {C18 diacid-γGlu-γGlu}-SGESG; amide I:27-II:C) is higher in “ThT assay pH 7.5: Lag time” value: 13.3 h for the first, 45.0 h for the second.

CC[C@H](C)[C@H](NC(=O)[C@H](Cc1ccccc1)NC(=O)[C@H](CCC(=O)O)NC(=O)[C@H](CCCNC(=N)N)NC(=O)[C@H](C)NC(=O)[C@H](C)NC(=O)[C@H](CCC(N)=O)NC(=O)[C@H](CCC(=O)O)NC(=O)[C@H](CCC(=O)O)NC(=O)[C@H](CC(C)C)NC(=O)[C@H](Cc1ccc(O)cc1)NC(=O)[C@H](CCCNC(=N)N)NC(=O)[C@H](CO)NC(=O)[C@@H](NC(=O)[C@H](CC(=O)O)NC(=O)[C@H](CO)NC(=O)[C@@H](NC(=O)[C@H](Cc1ccccc1)NC(=O)[C@@H](NC(=O)CNC(=O)[C@H](Cc1c[nH]cn1)NC(=O)C(C)(C)NC(=O)CCc1c[nH]cn1)[C@@H](C)O)[C@@H](C)O)C(C)C)C(=O)N[C@@H](C)C(=O)N[C@@H](Cc1c[nH]c2ccccc12)C(=O)N[C@@H](CC(C)C)C(=O)N[C@@H](CC(C)C)C(=O)N[C@@H](CCCCNC(=O)CNC(=O)[C@H](CO)NC(=O)[C@H](CCC(=O)O)NC(=O)CNC(=O)[C@H](CO)NC(=O)CC[C@H](NC(=O)CC[C@H](NC(=O)CCCCCCCCCCCCCCCCC(=O)O)C(=O)O)C(=O)O)C(=O)N[C@H](C(N)=O)[C@@H](C)O [Example 7, N^ε34-[2-[[(2S)-2-[[(2S)-4-carboxy-2-[[2-[[(2S)-2-[[(4S)-4-carboxy-4-[[(4S)-4-carboxy-4-(17-carboxyheptadecanoylamino)butanoyl]amino]butanoyl]amino]-3-hydroxypropanoyl]amino]acetyl]amino]butanoyl]amino]-3-hydroxypropanoyl]amino]acetyl]-[Imp7,Aib8,His9,Arg18,Glu22,Arg26,Leu33,Thr35]-GLP-1-(7-35)-peptide amide] (I: Desaminohistidyl-[Aib]HGTFTSDVSRYLEEQAAREFIAWLLKT-NH2 / II: {C18 diacid-γGlu-γGlu}-SGESG; amide I:27-II:C) and CC[C@H](C)[C@H](NC(=O)[C@H](Cc1ccccc1)NC(=O)[C@H](CCC(=O)O)NC(=O)[C@H](CCCNC(=N)N)NC(=O)[C@H](C)NC(=O)[C@H](C)NC(=O)[C@H](CCC(N)=O)NC(=O)[C@H](CCC(=O)O)NC(=O)[C@H](CCC(=O)O)NC(=O)[C@H](CC(C)C)NC(=O)[C@H](Cc1ccc(O)cc1)NC(=O)[C@H](CCCCN)NC(=O)[C@H](CO)NC(=O)[C@@H](NC(=O)[C@H](CC(=O)O)NC(=O)[C@H](CO)NC(=O)[C@@H](NC(=O)[C@H](Cc1ccccc1)NC(=O)[C@@H](NC(=O)CNC(=O)[C@H](Cc1c[nH]cn1)NC(=O)C(C)(C)NC(=O)CCc1c[nH]cn1)[C@@H](C)O)[C@@H](C)O)C(C)C)C(=O)N[C@@H](C)C(=O)N[C@@H](Cc1c[nH]c2ccccc12)C(=O)N[C@@H](CC(C)C)C(=O)N[C@@H](CC(C)C)C(=O)N[C@@H](CCCCNC(=O)CNC(=O)[C@H](CO)NC(=O)[C@H](CCC(=O)O)NC(=O)CNC(=O)[C@H](CO)NC(=O)CC[C@H](NC(=O)CC[C@H](NC(=O)CCCCCCCCCCCCCCCCCCC(=O)O)C(=O)O)C(=O)O)C(=O)N[C@H](C(N)=O)[C@@H](C)O [Example 30, N^ε34-[2-[[(2S)-2-[[(2S)-4-carboxy-2-[[2-[[(2S)-2-[[(4S)-4-carboxy-4-[[(4S)-4-carboxy-4-(19-carboxynonadecanoylamino)butanoyl]amino]butanoyl]amino]-3-hydroxypropanoyl]amino]acetyl]amino]butanoyl]amino]-3-hydroxypropanoyl]amino]acetyl]-[Imp7,Aib8,His9,Lys18,Glu22,Arg26,Leu33,Thr35]-GLP-1-(7-35)-peptide amide] (I: Desaminohistidyl-[Aib]HGTFTSDVSKYLEEQAAREFIAWLLKT-NH2 / II: {C20 diacid-γGlu-γGlu}-SGESG; amide I:27-II:C) are the same in “ThT assay pH 7.5: Lag time” value: 45.0 h for the first, 45.0 h for the second.
